Results taken from paper PMC4336329 (PLoS ONE, 2015).
The campaign covered roughly 310,000 compounds. About 2,200 (0.71%) showed an effect of 50% or more. Effects have a minus sign here. The list shows a part of the results.

Each molecule was assayed against human ether-à-go-go-related gene (hERG) potassium channel (human, UniProt Q12809) (assay: primary screen, population patch clamp on CHO cells stably expressing hERG).
Sequence of human ether-à-go-go-related gene (hERG) potassium channel (Q12809 whole entry, looked up): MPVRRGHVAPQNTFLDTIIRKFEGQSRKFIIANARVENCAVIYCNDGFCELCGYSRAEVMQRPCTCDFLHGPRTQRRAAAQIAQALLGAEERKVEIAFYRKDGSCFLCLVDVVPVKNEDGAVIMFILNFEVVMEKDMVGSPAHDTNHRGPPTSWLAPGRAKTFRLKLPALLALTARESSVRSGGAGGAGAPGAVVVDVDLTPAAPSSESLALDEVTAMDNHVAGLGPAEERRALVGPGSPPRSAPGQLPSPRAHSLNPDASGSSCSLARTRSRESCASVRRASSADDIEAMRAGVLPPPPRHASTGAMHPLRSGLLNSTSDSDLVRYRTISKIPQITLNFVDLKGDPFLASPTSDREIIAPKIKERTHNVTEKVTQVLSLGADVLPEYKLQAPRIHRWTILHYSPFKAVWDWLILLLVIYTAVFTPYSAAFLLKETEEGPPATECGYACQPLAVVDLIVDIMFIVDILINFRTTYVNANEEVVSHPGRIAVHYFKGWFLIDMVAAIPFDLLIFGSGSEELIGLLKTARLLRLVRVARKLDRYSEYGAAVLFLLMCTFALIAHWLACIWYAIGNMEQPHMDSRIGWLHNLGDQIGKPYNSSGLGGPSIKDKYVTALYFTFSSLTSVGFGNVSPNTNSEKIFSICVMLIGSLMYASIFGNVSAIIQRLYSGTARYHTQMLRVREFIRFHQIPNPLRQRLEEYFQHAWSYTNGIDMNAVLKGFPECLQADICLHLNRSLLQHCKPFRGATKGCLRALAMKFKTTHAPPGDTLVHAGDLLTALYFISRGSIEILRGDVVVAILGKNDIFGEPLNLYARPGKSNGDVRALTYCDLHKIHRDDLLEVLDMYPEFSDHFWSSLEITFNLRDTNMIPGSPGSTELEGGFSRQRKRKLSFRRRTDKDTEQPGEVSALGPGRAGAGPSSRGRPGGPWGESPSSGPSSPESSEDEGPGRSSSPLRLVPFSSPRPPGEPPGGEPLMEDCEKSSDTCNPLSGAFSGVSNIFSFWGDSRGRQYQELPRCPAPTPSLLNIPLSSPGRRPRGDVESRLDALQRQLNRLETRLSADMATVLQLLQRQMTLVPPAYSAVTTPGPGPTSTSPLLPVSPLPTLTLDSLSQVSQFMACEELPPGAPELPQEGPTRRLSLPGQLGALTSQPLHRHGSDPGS

Structure (SMILES)	hERG current change (%, negative = inhibition) at 1uM [%]
O=C(Nc1nc(-c2ccccn2)cs1)C1CC(=O)N(c2ccc3c(c2)OCCO3)C1 (stereo not drawn)	3.21
COc1ccc(COc2ccc(C3C(S(=O)(=O)c4ccccc4)CON3C)cc2OC)cc1 (stereo not drawn)	3.29
CCOc1cccc(=O)c2c(C)n(C)c(C)c12	-0.735
COc1cccc(NC(=O)N2CCCCCC2)c1	10.9
CN(C)S(=O)(=O)c1ccc(NS(=O)(=O)/C=C/c2ccccc2)cc1	-5.11
O=C/C(=C\Nc1ccc(Cl)cn1)c1nc2cc(Cl)ccc2o1	17.3
CCn1c(SCc2ccc(C)cc2)nnc1-c1cnccn1	-0.29
O=C(O)CSc1nnc(Cn2nnc3ccccc32)n1CCc1ccccc1	17.1
CCCCC(=O)Nc1ccc(N2CCN(C(=O)c3ccco3)CC2)cc1	-3.26
CCOCC(=O)Nc1cc(C(=O)OC)ccc1C(=O)OC	8.88
CC1CCCC(C)N1C(=O)CN1C(=O)C(C)(C)Oc2ccc(C(=O)NC3CCCC3)cc21 (stereo not drawn)	-2.17
COCCN(C(=O)COC(=O)CCC(=O)c1cccs1)c1c(N)n(Cc2ccccc2)c(=O)[nH]c1=O	9.85
Cc1cccc(N(CC(=O)N2CCCC2)S(=O)(=O)c2ccccc2)c1C	1.76
CCOC(=O)c1c(C)n(CC)c2ccc(OC(=O)c3ccc([N+](=O)[O-])cc3)cc12	8.35
OC(CNCc1ccccc1F)(c1ccc(F)cc1)c1ccc(F)cc1	-1.96
O=C(c1ccc(Cl)cc1)C1CCCN(Cc2cccc3cccnc23)C1 (stereo not drawn)	-43.8
COc1ccc2ccccc2c1CNC(C)CCc1ccccc1.O=C(O)C(=O)O (stereo not drawn)	-36
Cc1nc(CCNS(=O)(=O)c2cccs2)cs1	0.69
CCCCNC(=O)OCC(CC)NC(=O)OC(C)C (stereo not drawn)	16.7
C[C@H]1[C@H](OC(=O)CCC(=O)NCc2ccc(C(=O)O)cc2)O[C@@H]2O[C@@]3(C)CC[C@H]4[C@H](C)CC[C@@H]1C24OO3	-10.5
N#CC(C#N)=Cc1ccc(OC(=O)c2ccccn2)cc1	5.8
O=C(COc1cccc2cccnc12)N/N=C/c1ccccc1O	6.63

Structure (SMILES)	hERG current change (%, negative = inhibition) at 1uM [%]
Nc1nnc(SCCOc2ccccc2)s1	0.271
CN1CCN(S(=O)(=O)c2ccc(N(C)Cc3ccc(C(F)(F)F)cc3)c([N+](=O)[O-])c2)CC1	13.1
CCN1CCN(C(=O)C23CCC(C)(C(=O)C2Br)C3(C)C)CC1 (stereo not drawn)	-0.0512
COc1ccc(NC(=O)CSc2nnc(N)s2)cc1	18.7
COc1ccc(C2CC(=O)c3cnc(NC(=O)c4ccccc4OC)nc3C2)c(OC)c1 (stereo not drawn)	14.5
C/C(=N\NC(=O)c1ccncc1)c1c(O)[nH]c(=O)[nH]c1=O	0.43
Cc1cccc(NS(=O)(=O)c2cccc(C(=O)Nc3cccc(C(=O)O)c3)c2)c1	10.6
O=C(c1nc2ccccn2c1CN1CCCC(O)C1)N1CCN(C2CCCCC2)CC1 (stereo not drawn)	5.78
Cc1noc(C)c1CSCC(=O)OCC(=O)N1CC(=O)Nc2ccccc21	-10.9
CN(C(=O)CN1CCN(c2cnn(-c3ccccc3)c(=O)c2Cl)CC1)C1CCS(=O)(=O)C1 (stereo not drawn)	6.02
CC(C)(C)c1ccc(-c2nc(N)nc(N)n2)cc1	15.3
CCCCn1c(CN2C(=O)c3ccccc3C2=O)nc2ccccc2c1=O	6.34
CC(=O)N1c2ccc(S(=O)(=O)NCCC(=O)NCc3ccc(F)cc3)cc2CC1C (stereo not drawn)	15.7
CCCN(C(=O)c1cccs1)c1c(N)n(Cc2ccccc2)c(=O)[nH]c1=O	-4.34
N#C/C(=C\c1ccc(-c2ccccc2C(=O)O)o1)c1nc2ccccc2[nH]1	11
N#C/C(=C\c1ccc(OCc2ccc(Cl)cc2)cc1)C(=O)Nc1cccc(C(=O)O)c1	14.3
O=C(Nc1ccc(OCC(=O)N2CCOCC2)cc1)c1cccc(Cl)c1	6.25
CCOc1ccccc1CN1CCN(Cc2cccc3c2OCO3)CC1CCO (stereo not drawn)	-2.66
CCN(CCCNC(=O)C1CCCN(S(=O)(=O)CC)C1)c1cccc(C)c1 (stereo not drawn)	3
COc1ccc(C2C(C(=O)N3CCN(c4ccc(OC)cc4)CC3)c3ccccc3C(=O)N2C)cc1 (stereo not drawn)	2.07
Cc1ccnc(N2C(=O)CSC2c2ccc(Cl)cc2)c1 (stereo not drawn)	5.33
COc1ccc(CCNC(=O)CSc2nc3[nH]ncc3c(=O)n2-c2ccc(Cl)cc2Cl)cc1OC	18.7

Structure (SMILES)	hERG current change (%, negative = inhibition) at 1uM [%]
Cc1cc(C)c(C)c(/C=C(/C#N)C(N)=S)c1C	4.11
Cc1ccc(S(=O)(=O)Oc2ccccc2/C=C2\SC(=O)NC2=O)cc1	17.6
CC(C)(C)c1cc(=O)n2c(C#N)c(C#N)nc2[nH]1	9.45
CCOc1ccc(NS(=O)(=O)c2ccc3[nH]c(=O)cc(C(=O)O)c3c2)cc1	14.6
CCCCN(C)CCCNC(=O)C1CC(=O)N(Cc2ccc(OC)cc2)C1 (stereo not drawn)	1.02
CCOC(=O)c1c(N)sc(C(=O)OCCOC)c1C	18.6
CN(C)/C=C1\N=C(c2cccs2)OC1=O	12
O=C1CC(c2ccc(Cl)cc2)SC(N(c2ccccc2)c2ccccc2)=N1 (stereo not drawn)	-2.81
c1ccc(-c2noc(-c3ccno3)n2)nc1	4.93
Cl.c1ccc2c(N3CCOCC3)nc(N3CCOCC3)nc2c1	-1.22
O=c1c2ccccc2nnn1CCO	16.5
CC(C)c1nc(SCC(=O)N2CCc3ccccc32)n[nH]1	-3.3
CCCc1ccc(C2=Nn3c(nnc3C(C)C)SC2)cc1	5.93
Nc1ccccc1Nc1ccc([N+](=O)[O-])cc1[N+](=O)[O-]	-4.09
Cc1c(Cl)c([N+](=O)[O-])nn1CCCC(=O)N1CCN(c2ccccc2)CC1	-4.03
Cc1nc(-c2ccc(S(=O)(=O)Nc3ccccc3C)cc2)co1	7.55
Nc1nc2n(n1)C(c1cccs1)CC(c1ccccc1)N2 (stereo not drawn)	4.31
Cc1c(-c2ccc(F)cc2)[n+](=O)c2c(n1[O-])CCCCC2	9.44
Cc1ccc(C)c(NC(=O)Cn2nc(-c3ccccc3)nc2-c2ccccc2)c1	16.6
CCCc1nnc(SCCSc2nnc(CCC)n2N)n1N	5.6
Cc1ccc(S(=O)(=O)N2CCC(=O)N(CCOCc3ccccc3C)CC2)cc1	10.5
O=C(C1=C[C@H](c2csc3ccccc23)C[C@H](OCCCCO)O1)N1CCN(Cc2ccc3c(c2)OCO3)CC1	-0.399

Structure (SMILES)	hERG current change (%, negative = inhibition) at 1uM [%]
Cc1cc(C)nc(NS(=O)(=O)c2ccc(N3C(=O)C4CC=C(Cl)CC4C3=O)cc2)n1 (stereo not drawn)	4.06
CCOc1ccc(N2CC(C(=O)Nc3ccc(S(=O)(=O)N4CCOCC4)cc3)CC2=O)cc1 (stereo not drawn)	7.03
O=C(CS(=O)(=O)c1cccc(Cl)c1)Nc1ccccc1Cl	9.46
Cc1c(Cl)cccc1N(Cc1ccc(C(=O)O)cc1)S(=O)(=O)c1ccccc1	3.4
CCN1CCN(C(c2ccccc2F)c2nnnn2Cc2ccc3c(c2)OCO3)CC1.Cl (stereo not drawn)	-10.2
O=C(Nc1ccnn1C1CCN(Cc2cc3ccccc3[nH]2)CC1)C1CCOC1 (stereo not drawn)	7.3
COC(CNC(=O)C1CCCCC1C(=O)O)OC (stereo not drawn)	7.74
CCc1ccccc1OCC(=O)Nc1cc(S(=O)(=O)N(CC)CC)ccc1N1CCOCC1	9.24
N#Cc1ccccc1Oc1ccc(S(=O)(=O)N2CCCCC2)cn1	15.2
COc1cccc(/C=C/C(=O)OCC(=O)Nc2cc(S(=O)(=O)N3CCOCC3)ccc2C)c1	18.5
COc1ccc(/C=C2\N=C(C(C)(C)C)OC2=O)c(OC)c1	14.6
Cc1c(C(=O)NCCSCc2ccc(Cl)cc2Cl)cccc1[N+](=O)[O-]	17
Cc1ccsc1C(=O)NNC(=O)CCN1CCN(c2ccccc2)CC1	0.276
CCC1(CC)NC(=O)NC1=O	11.1
CCCOc1ccc(Cl)cc1/C=C1/C(=O)ON=C1C	10.1
CN1C(=O)N(C)C2(c3ccccc3)Nn3c(s/c(=C/c4ccccc4F)c3=O)=NC12c1ccccc1 (stereo not drawn)	9.18
COc1ccc(Cl)cc1C(=O)NNC(=O)COC(=O)CC(NC(C)=O)c1ccccc1 (stereo not drawn)	20.1
Cc1ccc([N+](=O)[O-])cc1NC(=O)C1CCN(S(C)(=O)=O)CC1	19.2
CCCCN(C)C(=O)c1cc2cc3ccc(OC)cc3nc2o1	8.31
COc1ccccc1CNC(=O)CCCc1cn(C)c2ccccc12	5.66
Cc1ccc(S(=O)(=O)NCc2n[nH]c(=S)n2C)cc1	17
